In PubChem BioAssay AID360 (National Center for Advancing Translational Sciences (NCATS), 2006):
About 550 (1.1%) of roughly 48,000 compounds were called active. About 4% were inconclusive and are not listed. Cut-off read from the data, not from the text of the source: active = potency below about 15 µM; inconclusive = mostly about 16 µM to 33 µM; inactive = weaker than that. Some of the results follow.

molecular target: Lysosomal acid glucosylceramidase (Homo sapiens) (UniProt P04062); assay: Glucocerebrosidase; details: purified enzyme, resorufin glucoside fluorescence (screen aimed at inhibitors), 20 min;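 note: the screen sought inhibitors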
In short: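 Compounds titrated against 0.2 nM normal enzyme, 30 uM resorufin beta-D-glucopyranoside substrate, citrate/phosphate buffer with taurocholate and tween-20, pH 5.9. Reaction ran 20 min at room temperature; fluorescence (Ex 548/Em 600) gave AC50.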
Potency is the fitted concentration of half-maximal effect.

Chain of UniProt P04062 (P04062 whole entry, looked up): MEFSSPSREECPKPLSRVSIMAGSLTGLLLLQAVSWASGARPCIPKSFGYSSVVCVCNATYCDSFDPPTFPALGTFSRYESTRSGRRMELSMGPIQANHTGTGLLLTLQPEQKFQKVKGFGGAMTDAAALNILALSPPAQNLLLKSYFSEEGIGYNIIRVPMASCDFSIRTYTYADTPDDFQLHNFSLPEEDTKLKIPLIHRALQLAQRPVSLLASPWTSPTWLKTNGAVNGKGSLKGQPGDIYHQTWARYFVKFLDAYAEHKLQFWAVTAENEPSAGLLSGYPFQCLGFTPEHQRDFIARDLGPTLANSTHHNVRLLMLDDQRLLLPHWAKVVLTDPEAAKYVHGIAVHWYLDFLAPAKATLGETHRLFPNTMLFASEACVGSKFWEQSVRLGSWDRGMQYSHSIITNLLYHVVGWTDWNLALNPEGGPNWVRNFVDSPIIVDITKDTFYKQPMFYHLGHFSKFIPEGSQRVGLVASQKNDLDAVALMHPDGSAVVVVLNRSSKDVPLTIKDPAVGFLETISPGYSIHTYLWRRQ

Potency, inactive:
Cc1ccc2nc(-c3ccccn3)oc2c1 > 76.9 µM
CCOC(=O)Cc1csc(SCC(=O)c2c(N)n(CC(C)C)c(=O)n(C)c2=O)n1 > 76.9 µM
O=C(NCc1ccncc1)C12CC3CC(CC(C3)C1)C2 > 76.9 µM
Cc1ccnc2nc(C(=O)OCCOc3cccc(Br)c3)nn12 > 76.9 µM
Nc1nnc(C(=O)c2ccccc2N)s1 > 76.9 µM
C=COCCNC(=O)C1CC(=O)N(c2ccc(C)cc2)C1 (stereo unspecified) > 76.9 µM
CCSc1nnc(-c2ccc(S(=O)(=O)N3CCOCC3)cc2)n1CC1CCCO1 (stereo unspecified) > 76.9 µM
COCc1[nH]nc2c1C1(CCC3(CC1)OCCO3)C(C#N)=C(N)O2 > 76.9 µM
N=c1nc(SCCC(=O)O)ss1 > 76.9 µM
Cc1nnc(SCC(=O)Nc2ncc(Cc3ccc(F)cc3)s2)n1N > 76.9 µM
CCCCNC(=O)OC1CCS(=O)(=O)C1 (stereo unspecified) > 76.9 µM
CN(C)c1ccc(NC(=O)CN2C(=O)CC(c3ccccc3)=Nc3ccccc32)cc1 > 76.9 µM
CN(C(=O)C1CCOC1)c1nnc(-c2cccnc2)s1 (stereo unspecified) > 76.9 µM
CN(C)Cc1nc2c(c(=O)[nH]1)C1(CCCCC1)Cc1ccccc1-2
CCOCCc1nnc(NC(=O)c2cc(OC)c(OC)c(OC)c2)s1 > 76.9 µM
CCOC(=O)CNC(=O)Cn1cnc2sc(C)c(S(=O)(=O)N3CCC(C)CC3)c2c1=O > 76.9 µM
CC(=O)Nc1ccc(S(=O)(=O)N2C3CCCC2CC(NC(=O)C2CCCCC2)C3)cc1 (stereo unspecified) > 76.9 µM
CCOC(=O)c1ccccc1N/C=C1\CCCC1=O > 76.9 µM
COc1ccc(-n2c(SCCC(=O)O)nnc2-c2ccncc2)cc1 > 76.9 µM
CCOC(=O)c1nnn(-c2nonc2N)c1-c1ccc(OC)cc1
Cc1occc1-c1nnc(SCC(=O)c2ccc(F)cc2)n1Cc1ccco1 > 76.9 µM
COc1ccc(OC)c(C(=O)COC(=O)C2CC3CCCC(C2)C3=O)c1 (stereo unspecified) > 76.9 µM
Cc1ccc(CNC(=O)C2C3C=CC(C3)C2C(=O)O)cc1 (stereo unspecified) > 76.9 µM
C=CCn1c(SCC(=O)c2cccs2)nc2sc(C)cc2c1=O > 76.9 µM
CCOC(=O)CC(=O)CSc1ccc2nnc(-c3cccc(F)c3)n2n1 > 76.9 µM
CCCCNC(=O)c1cc2c(=O)n3cccc(C)c3nc2n(Cc2ccccc2)c1=N > 76.9 µM
COC(=O)c1cc(OC)c(OC)cc1NC(=O)Nc1ccc(OC)cc1OC > 76.9 µM
COC(=O)CC(=O)CSc1nc2c(cc1C#N)CCC2 > 76.9 µM
CCN(CC(=O)NC(C)C)C(=O)CCNC(=O)c1ccc(Cl)cc1 > 76.9 µM
Cc1occc1-c1nnc(SCC(=O)N2CCN(c3ccc(F)cc3)CC2)n1C > 76.9 µM
COC(=O)C1=C(C)N(c2ccc(F)c(Cl)c2)C(=O)C1 > 76.9 µM
COc1ccc(NC(=O)CN2CCC(C(N)=O)CC2)cc1
COc1ccc2[nH]c(=O)c(CN(Cc3nnnn3CCc3ccccc3)CC3CCCO3)cc2c1 (stereo unspecified)
COc1ccccc1-c1c(C)oc2cc(OC(=O)c3ccco3)ccc2c1=O > 76.9 µM
CCOc1ccc(C(=O)CCN2CCCCC2)cc1 > 76.9 µM
CC1CN(S(=O)(=O)c2ccc(NC(=O)CCN3C(=O)c4ccccc4C3=O)cc2)CC(C)O1 (stereo unspecified) > 76.9 µM
COC(=O)CC1=Nc2ccccc2NC(=O)C1 > 76.9 µM
CCn1c(SCC(=O)Nc2nc(C)cs2)nnc1-c1ccco1 > 76.9 µM
Cc1cc(=O)oc2n[nH]c(-c3ccccc3)c12 > 76.9 µM
CSc1nnc(-c2sc3cc(Cl)ccc3c2Cl)n1C > 76.9 µM
O=C(CSc1nnnn1-c1cccnc1)NCc1cccs1 > 76.9 µM
CCCCCn1c(N2CCC(C(N)=O)CC2)nc2c1c(=O)[nH]c(=O)n2C > 76.9 µM
COc1ccc(C(=O)NCc2oc(-c3ccccc3)cc2C(=O)O)cc1 > 76.9 µM
COc1cc(C(=O)N(Cc2ccco2)Cc2cc3ccccc3[nH]c2=O)cc(OC)c1OC > 76.9 µM
Cc1nn(Cc2ccccc2)c(C)c1NC(=O)CSc1nnc(-c2cc(Cl)ccc2O)n1C > 76.9 µM
CCCOc1ccc(NC(=O)C2CCCNC2=O)cc1 (stereo unspecified) > 76.9 µM
CC(C)=CC(=O)OCC(=O)Nc1nc(C)c(Cl)cc1Cl > 76.9 µM
CCCSc1nsc(SCCC)c1C(N)=O > 76.9 µM
CCOC(=O)N1CCC(N2Cc3cccc(C(=O)NCc4ccccc4OC)c3C2=O)CC1 > 76.9 µM
CCC(Sc1nc(=O)cc(N)n1-c1cccc(C)c1)C(=O)Nc1cc(C)on1 (stereo unspecified) > 76.9 µM
COC(=O)c1c(-c2ccccc2)csc1NC(=O)c1ccco1 > 76.9 µM
COc1cc(OC)c(C(=O)NC2CCCCCC2)cc1OC > 76.9 µM
O=C(c1ccco1)N1CCN(C(=O)c2ccccc2OC(=O)C23CC4CC(CC(C4)C2)C3)CC1 > 76.9 µM
CCOC(=O)c1cc2c(=O)n3ccccc3nc2n(CCCOC)c1=NC(C)=O > 76.9 µM
COC(=O)c1[nH]c2ccccc2c1NC(=O)CN1CCN(c2cccc(Cl)c2)CC1 > 76.9 µM
CC(=O)c1cc(C#N)c(SCCC(C)C)nc1C > 76.9 µM
COC(=O)CSc1nnc(CNC(=O)c2ccccc2OC)n1-c1ccc(OC)cc1 > 76.9 µM
COCCN(CC(=O)Nc1ccccc1C)S(=O)(=O)c1ccc(S(=O)(=O)N2CCCC2)cc1 > 76.9 µM
O=c1[nH]c2cc3c(cc2cc1CN(Cc1ccccc1)Cc1nnnn1Cc1ccco1)OCCO3 > 76.9 µM
CCOC(=O)CSc1cc(=O)n(C)c2cc(Cl)ccc12 > 76.9 µM
NC(=O)C1CCN(C(c2ccccc2F)c2nnnn2Cc2ccco2)CC1 (stereo unspecified) > 76.9 µM
CC(C)CN1CN(S(=O)(=O)c2cccs2)c2nc3ccccc3nc21 > 76.9 µM
CCn1c(SCC(=O)N2CCc3ccccc32)nnc1-c1ccncc1 > 76.9 µM
Cc1cc(NCCN2CCCCC2)n2c(nc3ccccc32)c1C#N > 76.9 µM
COc1ccc(CNC(=O)C(c2ccco2)N(Cc2cccs2)C(=O)Cc2cccs2)cc1 (stereo unspecified) > 76.9 µM
CC12CCC(=O)N1C(C(=O)Nc1cccc3ccccc13)CS2 (stereo unspecified) > 76.9 µM
COc1ccc(CN2CCN(S(=O)(=O)c3ccc(F)cc3)CC2)cc1OC > 76.9 µM
CCCC(CCC)C(=O)Nc1ccncc1 > 76.9 µM
Cc1cc(C)c2nc3c(c(C(=O)O)c2c1)CCC3 > 76.9 µM
CN(C)c1ccc(C(CC(=O)O)NC(=O)c2ccc(Cl)cc2)cc1 (stereo unspecified) > 76.9 µM
CCOC(=O)c1cccc(NS(=O)(=O)c2cnc[nH]2)c1 > 76.9 µM
CCCCC1CCC(C(=O)Nc2c(C)n(C)n(-c3ccccc3)c2=O)CC1 (stereo unspecified) > 76.9 µM
CCCn1c(=O)c2ccccc2n2c(SCC(=O)c3ccc(F)cc3)nnc12 > 76.9 µM
Cc1nc(NCc2ccco2)nc2c1C(=O)CC(C)C2 (stereo unspecified) > 76.9 µM
CCOC(=O)CNC(=O)CSc1ncnc2c1cnn2-c1ccccc1 > 76.9 µM
CN1CCN(C(=O)c2ccc(N(Cc3ccc(Cl)cc3)S(C)(=O)=O)cc2)CC1 > 76.9 µM
CCOC(=O)CSC1=C(C#N)C(c2sccc2C)CC(=O)N1 (stereo unspecified) > 76.9 µM
c1ccc(-c2csc(N3CCCCCC3)n2)cc1 > 76.9 µM
C=C(C)Cn1c(SCC#N)nc2ccccc2c1=O > 76.9 µM
CCCc1nnc(NC(=O)Cn2c(=O)oc3ccccc32)s1 > 76.9 µM
Cc1ccc(S(=O)(=O)N2CCN(C(=O)CSc3nc4ccccc4o3)C2)cc1 > 76.9 µM
CSc1ccccc1-n1nnnc1SCC(=O)NCc1cccs1 > 76.9 µM
O=C(NC1CCCCC1)N1CCC(n2cnc3ccccc32)CC1 > 76.9 µM
CCn1c(=O)n(CC)c2cc(S(=O)(=O)N3CCC(c4ccccc4)CC3)ccc21 > 76.9 µM
c1cncc(-c2nnc(SCCSc3nnc(-c4cccnc4)o3)o2)c1 > 76.9 µM
CN(C)C=NCCn1c(N2CCOCC2)nc2c1c(=O)n(C)c(=O)n2C > 76.9 µM
COc1ccc(CCNC(=O)CSc2nc(N)c(C#N)c(-c3cccs3)c2C#N)cc1OC > 76.9 µM
CCN(CC(=O)Nc1ccc2c(c1)OCCO2)Cc1cc(=O)oc2c(C)c(C)ccc12 > 76.9 µM
CCN(CCO)C(=O)C12CCC(C)(C(=O)C1)C2(C)C (stereo unspecified) > 76.9 µM
COc1cccc(OC)c1C(=O)N1CCN(Cc2ccncc2)CC1 > 76.9 µM
CCOc1cc2[nH]c(=O)n(CC3CCC(C(=O)NC4CCCCC4)CC3)c(=O)c2cc1OCC (stereo unspecified) > 76.9 µM
